Laboratory results reported in PMC9911399, “Two distinct binding modes provide the RNA-binding protein RbFox with extraordinary sequence specificity”.
Changes are numbered by the printed parent chain; changes in the protein carry UniProt numbers. This is one part of the list.

T1: RBFOX1 RRM RbFoxmut (Fox-RRM*) (Homo sapiens, UniProt Q9NWB1 109-208, R118D;E147R;N151S;E152T)
T1 sequence: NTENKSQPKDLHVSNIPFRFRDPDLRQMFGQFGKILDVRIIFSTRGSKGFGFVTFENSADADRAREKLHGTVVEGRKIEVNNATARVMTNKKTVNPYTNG

B1: AUCCGCA (DNA:RNA)
RNA: GGGAGACCGGAAUUCAGAUUGUCCAUCCGCAUUAAAUCCCGUCGUAGCCACCA
DNA 1: CAATCTGAATTCCGGTCTCCC
DNA 2: TGGTGGCTACGACGGGATT
B2: GACGAAG (DNA:RNA)
RNA: B1 RNA with A25G, U26A, C28G, G29A, C30A, A31G
DNA 1: CAATCTGAATTCCGGTCTCCC
DNA 2: TGGTGGCTACGACGGGATT
B3: GACGCUU (DNA:RNA)
RNA: B1 RNA with A25G, U26A, C28G, G29C, C30U, A31U
DNA 1: CAATCTGAATTCCGGTCTCCC
DNA 2: TGGTGGCTACGACGGGATT
B4: GUCCAAG (DNA:RNA)
RNA: B1 RNA with A25G, G29A, C30A, A31G
DNA 1: CAATCTGAATTCCGGTCTCCC
DNA 2: TGGTGGCTACGACGGGATT
B5: CACGCUU (DNA:RNA)
RNA: B1 RNA with A25C, U26A, C28G, G29C, C30U, A31U
DNA 1: CAATCTGAATTCCGGTCTCCC
DNA 2: TGGTGGCTACGACGGGATT
B6: AUUAAUG (DNA:RNA)
RNA: B1 RNA with C27U, C28A, G29A, C30U, A31G
DNA 1: CAATCTGAATTCCGGTCTCCC
DNA 2: TGGTGGCTACGACGGGATT
B7: AAAUGAU (DNA:RNA)
RNA: B1 RNA with U26A, C27A, C28U, C30A, A31U
DNA 1: CAATCTGAATTCCGGTCTCCC
DNA 2: TGGTGGCTACGACGGGATT
B8: ACACAGU (DNA:RNA)
RNA: B1 RNA with U26C, C27A, G29A, C30G, A31U
DNA 1: CAATCTGAATTCCGGTCTCCC
DNA 2: TGGTGGCTACGACGGGATT
B9: GUAACGA (DNA:RNA)
RNA: B1 RNA with A25G, C27A, C28A, G29C, C30G
DNA 1: CAATCTGAATTCCGGTCTCCC
DNA 2: TGGTGGCTACGACGGGATT
B10: CAGGCCG (DNA:RNA)
RNA: B1 RNA with A25C, U26A, C27G, C28G, G29C, A31G
DNA 1: CAATCTGAATTCCGGTCTCCC
DNA 2: TGGTGGCTACGACGGGATT
B11: UUGCGCU (DNA:RNA)
RNA: B1 RNA with A25U, C27G, A31U
DNA 1: CAATCTGAATTCCGGTCTCCC
DNA 2: TGGTGGCTACGACGGGATT
B12: CGCAGGC (DNA:RNA)
RNA: B1 RNA with A25C, U26G, C28A, C30G, A31C
DNA 1: CAATCTGAATTCCGGTCTCCC
DNA 2: TGGTGGCTACGACGGGATT
B13: UUCUGUA (DNA:RNA)
RNA: B1 RNA with A25U, C28U, C30U
DNA 1: CAATCTGAATTCCGGTCTCCC
DNA 2: TGGTGGCTACGACGGGATT
B14: AUAGAUC (DNA:RNA)
RNA: B1 RNA with C27A, C28G, G29A, C30U, A31C
DNA 1: CAATCTGAATTCCGGTCTCCC
DNA 2: TGGTGGCTACGACGGGATT
B15: GAGGUGA (DNA:RNA)
RNA: B1 RNA with A25G, U26A, C27G, C28G, G29U, C30G
DNA 1: CAATCTGAATTCCGGTCTCCC
DNA 2: TGGTGGCTACGACGGGATT
B16: CAGAGCG (DNA:RNA)
RNA: B1 RNA with A25C, U26A, C27G, C28A, A31G
DNA 1: CAATCTGAATTCCGGTCTCCC
DNA 2: TGGTGGCTACGACGGGATT
B17: ACGCGAC (DNA:RNA)
RNA: B1 RNA with U26C, C27G, C30A, A31C
DNA 1: CAATCTGAATTCCGGTCTCCC
DNA 2: TGGTGGCTACGACGGGATT
B18: UCAAGUC (DNA:RNA)
RNA: B1 RNA with A25U, U26C, C27A, C28A, C30U, A31C
DNA 1: CAATCTGAATTCCGGTCTCCC
DNA 2: TGGTGGCTACGACGGGATT
B19: UCUAUCG (DNA:RNA)
RNA: B1 RNA with A25U, U26C, C27U, C28A, G29U, A31G
DNA 1: CAATCTGAATTCCGGTCTCCC
DNA 2: TGGTGGCTACGACGGGATT
B20: AGACGUU (DNA:RNA)
RNA: B1 RNA with U26G, C27A, C30U, A31U
DNA 1: CAATCTGAATTCCGGTCTCCC
DNA 2: TGGTGGCTACGACGGGATT

These binders were tested against T1, RBFOX1 RRM RbFoxmut (Fox-RRM*) (assay: EMSA; HiTS-Eq, 1 nM pool, 10 min; buffer printed only for the single-RNA assays: 10 mM Tris pH 7.5, 150 mM NaCl, 3.4 mM EDTA, 0.001% NP-40, 30 C). Conditions: tags: His6 N-terminal (pET28a); label: 5' 32P.
In short: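 Purified RbFox RRM, wild type or mutant, was incubated for 10 min in 50 µL with 1 nM of a 5′-radiolabelled RNA pool carrying 7 randomized nucleotides, whose flanks were annealed to DNA oligonucleotides, over a series of increasing protein concentrations. Unbound RNA was resolved on 8% native PAGE, cut out, reverse-transcribed, barcoded by PCR and sequenced on an Illumina HiSeq 2500. Relative association constants were derived from changes in read counts for each RNA species versus the control reaction and normalised to the cognate motif.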

Binder	binding signal
B1	0.167 KA relative to UGCAUGU
B2	0.0616 KA relative to UGCAUGU
B3	0.0757 KA relative to UGCAUGU
B4	0.104 KA relative to UGCAUGU
B5	0.103 KA relative to UGCAUGU
B6	0.124 KA relative to UGCAUGU
B7	0.0684 KA relative to UGCAUGU
B8	0.0829 KA relative to UGCAUGU
B9	0.075 KA relative to UGCAUGU
B10	0.0943 KA relative to UGCAUGU
B11	0.112 KA relative to UGCAUGU
B12	0.0734 KA relative to UGCAUGU
B13	0.166 KA relative to UGCAUGU
B14	0.0819 KA relative to UGCAUGU
B15	0.11 KA relative to UGCAUGU
B16	0.109 KA relative to UGCAUGU
B17	0.0755 KA relative to UGCAUGU
B18	0.0744 KA relative to UGCAUGU
B19	0.106 KA relative to UGCAUGU
B20	0.082 KA relative to UGCAUGU
